Laboratory results: PubChem BioAssay AID588342 (National Center for Advancing Translational Sciences (NCATS), 2011)
The campaign covered roughly 360,000 compounds. About 25,000 (6.9%) were called active. The shares of active, inactive and inconclusive entries below differ from those in the screen. Calls follow the shape of the dose curve; as a rule, active = well fitted inhibition curve with a large enough effect; inconclusive = small, poorly fitted or top-dose-only effect; inactive = flat fitted curve, though single readings scatter. Potencies beside an inconclusive call are fits to weak or partial responses and may not hold up.

target: Luciferin 4-monooxygenase (Photinus pyralis) (UniProt P08659); test: qHTS profiling assay for firefly luciferase inhibitor/activator using purifed enzyme and Km concentrations of substrates (counterscreen for miR-21 project); details: purified FLuc, luminescence inhibition; series mostly up to 57.5 µM; activity change, negative = inhibition: at the top concentration; also: nearly all actives have a fitted effect of over 55% in size;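 as to activity change, negative = inhibition: plate controls were vehicle for no effect and reference inhibitor for full effect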
Method in brief: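 Purified P. pyralis luciferase, 10 nM final, with Km-level 10 uM D-luciferin and 10 uM ATP in 50 mM Tris acetate pH 7.5, 10 mM Mg acetate, 0.01% Tween-20, 0.05% BSA; 6-point qHTS titration about 60 µM downward; luminescence read.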
Potency is read from the fitted curve at half-maximal effect; tags tell the direction and shape of the fitted curve.

UniProt P08659, sequence (P08659 whole entry, looked up): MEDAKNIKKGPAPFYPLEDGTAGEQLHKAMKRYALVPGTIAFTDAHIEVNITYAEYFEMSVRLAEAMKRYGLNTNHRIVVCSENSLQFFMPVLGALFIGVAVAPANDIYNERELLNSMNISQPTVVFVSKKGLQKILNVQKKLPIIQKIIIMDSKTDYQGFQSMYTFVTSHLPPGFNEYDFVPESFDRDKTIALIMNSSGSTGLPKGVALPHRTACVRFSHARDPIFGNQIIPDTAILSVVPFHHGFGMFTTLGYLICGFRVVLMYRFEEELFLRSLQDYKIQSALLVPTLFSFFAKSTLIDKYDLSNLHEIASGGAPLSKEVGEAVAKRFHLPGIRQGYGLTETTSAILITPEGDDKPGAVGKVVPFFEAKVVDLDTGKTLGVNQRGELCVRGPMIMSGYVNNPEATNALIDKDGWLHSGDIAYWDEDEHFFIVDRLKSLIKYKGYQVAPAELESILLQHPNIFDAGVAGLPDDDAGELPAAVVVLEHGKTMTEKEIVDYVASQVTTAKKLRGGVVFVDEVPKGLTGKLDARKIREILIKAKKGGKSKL

SMILES	activity change, negative = inhibition	Potency
CCN(CC)CCNC1=CC(=O)OC12CCCCC2	inactive: 3.16%	
O=C(CSc1nnc(NC2CCCCC2)s1)Nc1ccc2c(c1)C(=O)c1ccccc1C2=O		inconclusive: 12 µM [inhibitor, partial curve]
Cc1c(NC(=O)Nc2cccc(C#N)c2)c(=O)n(-c2ccccc2)n1C	inactive: 1.4%	
O=C(c1ccc(Oc2ccccc2)cc1)c1nc2c(n1O)CCCC2		inconclusive: 21.3 µM [inhibitor, partial curve, poor fit]
O=C(O)COc1ccc(/C=N/NC(=O)COc2nsnc2N2CCOCC2)cc1	inactive: -3.87%	
CCc1c(C)nn(C(=O)/C(C#N)=C\N(C)C)c1C	inactive: -1.19%	
c1ccc(CSc2ccc(-c3ccco3)nn2)cc1		active: 2.39 µM
O=C(Nc1ccccc1C(=O)O)c1ccc(Br)o1		active: 19 µM
COc1ccc(NC(=O)c2ccc3[nH]c(C)c(C)c3c2)cc1		active: 13.5 µM
CC(O)CNCCCOc1ccccc1OCc1ccccc1 (stereo unspecified)		inconclusive: 37.9 µM [inhibitor, partial curve, poor fit]
O=C(O)c1cccc2c1C(=O)c1ccc(N3CCCC3)cc1S2(=O)=O		inconclusive: 35.5 µM [inhibitor, single point]
O=C(Nc1ccc2c(c1)OCCO2)C1CCN(C(=O)c2ccccc2)CC1		inconclusive: 26.9 µM [inhibitor, partial curve, poor fit]
OCCCn1c(-c2ccccc2)n[nH]c1=S		inconclusive: 23.9 µM [inhibitor, single point]
C/C=C\C=C/C(=O)Nc1cccc(C2=NOC3(C2)C[C@H](C(N)=O)N(C(=O)CC)C3)c1 (stereo partly specified)		active: 19 µM
CC1(C)Cc2c(sc3nc(N/N=C/c4ccccc4)[nH]c(=O)c23)CO1		inconclusive: 2.13 µM [inhibitor, full curve]
Nc1cc(-c2ccc(Br)cc2)nn1Cc1ccccc1		active: 16.9 µM
O=C(Nc1cccnc1)Nc1ccccc1Cl		inconclusive: 26.9 µM [inhibitor, single point]
CC/C(=N\NC(=O)C1CCCC1)c1cccc(Br)c1	inactive: -1.78%	
COc1cccc(/C=C/c2ccc3cccc(O)c3n2)c1OC		active: 2.69 µM
CCSc1nnc(NC(=O)c2cc(C)on2)s1		inconclusive: 26.9 µM [inhibitor, single point]
COc1ccc2[nH]c(C)cc(=O)c2c1	inactive: 0.0408%	
COc1cccc(NC(=O)CNC(=O)c2ccc(OC)c(OC)c2)c1	inactive: -1.32%	
CCC1(c2ccc(F)cc2)NC(=O)N(CC(=O)Nc2ccc(N3CCCCC3)cc2)C1=O (stereo unspecified)		inconclusive: 23.9 µM [inhibitor, single point]
CCOC(=O)/C(O)=C/c1ncc(C(F)(F)F)cc1Cl		inconclusive: 16.9 µM [inhibitor, partial curve, poor fit]
COc1ccc2nc(N3CCN(C(=O)C4CC4)CC3)sc2c1		inconclusive: 23.9 µM [inhibitor, single point]
COc1ccc(NC(=O)N2CCc3c([nH]c4ccc(OC)cc34)C2c2ccc(OC)cc2)cc1 (stereo unspecified)	inactive: 0.784%	

SMILES	activity change, negative = inhibition	Potency
Cc1ccc(C(=O)NCCc2csc(C)n2)cc1		active: 9.53 µM
COc1cccc(-c2ccc(NC(=O)C3CCCN(CCCn4nc(C)cc4C)C3)cc2)c1 (stereo unspecified)		inconclusive: 23.9 µM [inhibitor, single point]
COc1ccccc1N(Cc1ccccc1)S(=O)(=O)c1cccc(C(=O)O)c1	inactive: 0.419%	
CCN1CCN(C(=O)c2ccc(-c3nc4ccccc4s3)s2)CC1		inconclusive: 9.53 µM [inhibitor, partial curve, poor fit]
Cc1cc(C(=O)CN2C(=O)C(=O)N(C3CCCC3)C2=O)c(C)n1-c1ccc(F)cc1	inactive: -16.7%	
C/C(=N\NC(=O)COc1ccc(C)cc1C(C)C)c1ccc(-n2ccnc2)cc1		active: 1.9 µM
N/C(=N\OC(=O)c1ccc(Br)cc1)c1ccccc1		active: 0.213 µM
COc1ccc(N2CCN(C(=O)c3ccc4nc(N5CCC(C)CC5)sc4c3)CC2)cc1		inconclusive: 19 µM [inhibitor, partial curve]
COc1cccc(/C=N/NC(=O)c2[nH]nc3c2CCc2ccccc2-3)c1		inconclusive: 26.9 µM [inhibitor, partial curve]
COc1cccc(C(=O)Nc2nc3c(c(=O)[nH]2)CCCC3)c1		inconclusive: 37.9 µM [inhibitor, partial curve, poor fit]
O=C(COCc1cc(-c2ccc3c(c2)OCO3)on1)Nc1cccnc1Cl		inconclusive: 26.9 µM [inhibitor, single point]
O=C(CCS(=O)(=O)c1ccccc1)Nc1ccc(Cl)cn1		inconclusive: 23.9 µM [inhibitor, partial curve, poor fit]
COc1cccc(C(=O)NC2C(=O)N3C(C(=O)O)=C(COC(C)=O)CSC23)c1 (stereo unspecified)		active: 21.3 µM
CCN(CC)S(=O)(=O)c1ccc(C)c(N=C=S)c1	inactive: -1.61%	
COc1ccc(OC)c(S(=O)(=O)NCCCc2ccccc2)c1	inactive: -6.72%	
CCOc1cc(-c2cc(-c3ccc(NC(C)=O)cc3)nc(N)c2C#N)ccc1O		inconclusive: 13.5 µM [inhibitor, partial curve]
CN(C(=O)CSc1ncnc2sccc12)C1CCS(=O)(=O)C1 (stereo unspecified)	inactive: 4.05%	
CN(C)c1ccc(/C=C2/NC(=O)NC2=O)cc1		inconclusive: 13.5 µM [inhibitor, partial curve, poor fit]
Cc1ccc(CCNc2ncnc3onc(C)c23)cc1		inconclusive: 15.1 µM [inhibitor, partial curve, poor fit]
Fc1ccc(Nc2ncnc3c2nc2n3CCCC2)cc1		inconclusive: 37.9 µM [inhibitor, single point]
COC(=O)C1=C(C)NC(=O)/C1=C\c1ccco1		inconclusive: 26.9 µM [inhibitor, partial curve, poor fit]
CC(C)OC(=O)Nc1ccc2c(c1)N(C(=O)CCN(C)C)c1ccccc1CC2		inconclusive: 26.9 µM [inhibitor, partial curve, poor fit]
CC(C)CSC1=NSC2=NC(=O)/C(=C\c3cccs3)C(=N)N12		inconclusive: 21.3 µM [inhibitor, single point]
COc1ccc(C(=O)NCCC2=CCCCC2)cc1		active: 0.849 µM
O=C(N/N=C/c1ccncc1)c1cc2c(ccc3ccccc32)o1		inconclusive: 2.69 µM [inhibitor, full curve]
CCOCCCNC(=O)c1c[nH]c2ccc(S(=O)(=O)Nc3cccc(Cl)c3C)cc2c1=O		inconclusive: 7.57 µM [inhibitor, partial curve]

SMILES	activity change, negative = inhibition	Potency
Cc1cc2c(cc1S(=O)(=O)N(C)CC(=O)Nc1cccc(C#N)c1)OCC(=O)N2	inactive: 2.52%	
COc1ccc(NC(=O)c2cccc(NC(=O)C(C)C)c2)c([N+](=O)[O-])c1		inconclusive: 16.9 µM [inhibitor, partial curve, poor fit]
Cc1ccc(NC(=O)CSc2ccc(C(N)=O)cc2[N+](=O)[O-])cc1		inconclusive: 21.3 µM [inhibitor, partial curve, poor fit]
Cc1cc(OC(=O)c2cccs2)ccc1C(C)C		active: 3.01 µM
O=C(Nc1nccs1)c1ccc(F)c(S(=O)(=O)N2CCOCC2)c1	inactive: -2.04%	
COc1ccccc1CCN=C(N)NS(=O)(=O)c1ccc(C)c(C)c1	inactive: -0.254%	
COc1ccccc1CNC(=O)c1ccc(CN2CC(=O)N3CCCCC3C2=O)cc1 (stereo unspecified)	inactive: -7.3%	
O=C(NN1C(=O)/C(=C/C=C/c2ccccc2)SC1=S)c1ccncc1		active: 13.5 µM
COc1cccc(Nc2nnc(SCC(=O)N3CC(=O)Nc4ccccc43)s2)c1		active: 21.3 µM
O=C(CNC(=O)Cc1ccccc1)N=Nc1c(O)[nH]c2ccccc12	inactive: 3.35%	
Cc1ccc(C)c(S(=O)(=O)N/N=C/c2ccc(F)cc2)c1		inconclusive: 16.9 µM [inhibitor, partial curve, poor fit]
Clc1ccc(CSc2ccc(-c3cccnc3)nn2)cc1		inconclusive: 30.1 µM [inhibitor, single point]
COC(=O)[C@@H]1CCCN1C(=O)CCc1nnc(CCC2CCCCC2)o1		active: 19 µM
CC1=N/C(=C/c2ccco2)C(=O)O1	inactive: -0.912%	
Cc1c(C)c2ccc(OS(C)(=O)=O)c(C)c2oc1=O		inconclusive: 37.9 µM [inhibitor, single point]
O=C(c1ccc([N+](=O)[O-])cc1)N1CCN(Cc2ccccc2[N+](=O)[O-])CC1		inconclusive: 0.006 µM [inhibitor, partial curve, poor fit]
O=C(Cc1ccccc1)N/N=C/c1ccc2cccc(O)c2n1		active: 19 µM
CCOC(=O)Cn1c(=O)n(C2CCCCC2)c2nc(-c3ccccc3Cl)nc(C(N)=O)c21	inactive: -5.12%	
CC1(C)C2CCC1(C)C(OC(=O)CNc1ccccc1)C2 (stereo unspecified)		inconclusive: 30.1 µM [inhibitor, partial curve, poor fit]
O=C(Nc1ccccc1C(=O)O)c1cccc(NS(=O)(=O)c2ccc(Br)cc2)c1		inconclusive: 23.9 µM [inhibitor, single point]
O=C(O)c1cccc(Nc2c3ccccc3nc3ccccc23)c1	inactive: -18.3%	
Cc1cccc(C)c1OCc1nc2c3cnn(-c4ccccc4Br)c3ncn2n1		inconclusive: 23.9 µM [inhibitor, partial curve, poor fit]
COCCNC(=O)C(c1ccc(C)o1)N(Cc1ccco1)C(=O)c1snc(C(N)=O)c1N (stereo unspecified)	inactive: -0.102%	
COc1ccc(-c2cc(-c3nnc(COC(=O)c4ccncc4)o3)c3ccccc3n2)cc1OC		inconclusive: 15.1 µM [inhibitor, partial curve, poor fit]
